# This is one part of the list.
# B1: SLR2P3F12 (Tachypleus tridentatus), TAL2_TACTR (protein)
# chain: MEKGTPPTHDSDNWMGRAKKIGNGGWNQFQFLFFDPNGYLYAVSKDKLYKASPPQSDTDNWIARATEIGSGGWSGFKSLFFHPNGYLYAVHGQRLYKALPPVSNQD
# How the values were obtained:
# Test in all cases: glycan array binding signal (z-score within array); higher = stronger binding
# Settings in all cases: glycan notation: IUPAC condensed, linker removed
# [1] = target: Neu5Ac(a2-3)Gal(b1-3)[Fuc(a1-4)]GlcNAc
# Method in brief: (§1)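 Glycan array data came from 3228 arrays in the Consortium for Functional Glycomics database, and only arrays with an available protein sequence were kept. Glycan names were put into IUPAC-condensed notation, and columns mapping to the same glycan were averaged. The binding signal is a within-array Z-score, averaged across arrays of one protein sequence run at different concentrations or buffers and across linkers. A negative Z-score can be read as non-binding.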
# [2] = target: Neu5Ac(a2-3)Gal(b1-3)[Fuc(a1-4)]GlcNAc(b1-3)Gal(b1-4)[Fuc(a1-3)]GlcNAc
# Method in brief: as §1
# [3] = target: Neu5Ac(a2-3)Gal(b1-3)[Neu5Ac(a2-3)Gal(b1-4)]GlcNAc
# Method in brief: as §1
# [4] = target: Neu5Ac(a2-3)Gal(b1-3)[Neu5Ac(a2-6)]GalNAc
# Method in brief: as §1
# [5] = target: Neu5Ac(a2-3)Gal(b1-4)Glc
# Method in brief: as §1
# [6] = target: Neu5Ac(a2-3)Gal(b1-4)GlcNAc
# Method in brief: as §1
# [7] = target: Neu5Ac(a2-3)Gal(b1-4)GlcNAc(b1-2)Man(a1-3)[GlcNAc(b1-2)Man(b1-4)GlcNAc(b1-2)Man(a1-6)]Man(b1-4)GlcNAc(b1-4)GlcNAc
# Method in brief: as §1
# [8] = target: Neu5Ac(a2-3)Gal(b1-4)GlcNAc(b1-2)Man(a1-3)[Neu5Ac(a2-6)Gal(b1-4)GlcNAc(b1-2)Man(a1-6)]Man(b1-4)GlcNAc(b1-4)GlcNAc
# Method in brief: as §1
# [9] = target: Neu5Ac(a2-3)Gal(b1-4)GlcNAc(b1-3)Gal(b1-3)GlcNAc
# Method in brief: as §1
# [10] = target: Neu5Ac(a2-3)Gal(b1-4)GlcNAc(b1-3)Gal(b1-4)GlcNAc
# Method in brief: as §1
# [11] = target: Neu5Ac(a2-3)Gal(b1-4)GlcNAc(b1-3)Gal(b1-4)GlcNAc(b1-3)Gal(b1-4)GlcNAc
# Method in brief: as §1
# [12] = target: Neu5Ac(a2-3)Gal(b1-4)GlcNAc(b1-3)Gal(b1-4)[Fuc(a1-3)]GlcNAc
# Method in brief: as §1
# [13] = target: Neu5Ac(a2-3)Gal(b1-4)GlcNAc(b1-6)[Gal(b1-3)]GalNAc
# Method in brief: as §1
# [14] = target: Neu5Ac(a2-3)Gal(b1-4)GlcNAc(b1-6)[Neu5Ac(a2-3)Gal(b1-3)]GalNAc
# Method in brief: as §1
# [15] = target: Neu5Ac(a2-3)Gal(b1-4)GlcNAc6S
# Method in brief: as §1
# [16] = target: Neu5Ac(a2-3)Gal(b1-4)[Fuc(a1-3)]GlcNAc
# Method in brief: as §1
# [17] = target: Neu5Ac(a2-3)Gal(b1-4)[Fuc(a1-3)]GlcNAc(b1-3)Gal
# Method in brief: as §1
# [18] = target: Neu5Ac(a2-3)Gal(b1-4)[Fuc(a1-3)]GlcNAc(b1-3)Gal(b1-4)GlcNAc
# Method in brief: as §1
# [19] = target: Neu5Ac(a2-3)Gal(b1-4)[Fuc(a1-3)]GlcNAc(b1-3)Gal(b1-4)[Fuc(a1-3)]GlcNAc(b1-3)Gal(b1-4)[Fuc(a1-3)]GlcNAc
# Method in brief: as §1
# [20] = target: Neu5Ac(a2-3)Gal(b1-4)[Fuc(a1-3)]GlcNAc(b1-6)[Gal(b1-3)]GalNAc
# Method in brief: as §1
# [21] = target: Neu5Ac(a2-3)Gal(b1-4)[Fuc(a1-3)]GlcNAc6S
# Method in brief: as §1
# [22] = target: Neu5Ac(a2-3)Gal6S(b1-4)GlcNAc
# Method in brief: as §1
# [23] = target: Neu5Ac(a2-3)Gal6S(b1-4)[Fuc(a1-3)]GlcNAc
# Method in brief: as §1
# [24] = target: Neu5Ac(a2-3)GalNAc
# Method in brief: as §1
# [25] = target: Neu5Ac(a2-3)GalNAc(b1-4)GlcNAc
# Method in brief: as §1
# [26] = target: Neu5Ac(a2-3)[GalNAc(b1-4)]Gal(b1-4)Glc
# Method in brief: as §1
# [27] = target: Neu5Ac(a2-3)[GalNAc(b1-4)]Gal(b1-4)GlcNAc
# Method in brief: as §1
# [28] = target: Neu5Ac(a2-3)[Neu5Ac(a2-6)]GalNAc
# Method in brief: as §1
# [29] = target: Neu5Ac(a2-6)Gal
# Method in brief: as §1
# [30] = target: Neu5Ac(a2-6)Gal(b1-4)Glc
# Method in brief: as §1
# [31] = target: Neu5Ac(a2-6)Gal(b1-4)GlcNAc
# Method in brief: as §1
# [32] = target: Neu5Ac(a2-6)Gal(b1-4)GlcNAc(b1-2)Man(a1-3)[Gal(b1-4)GlcNAc(b1-2)Man(a1-6)]Man(b1-4)GlcNAc(b1-4)GlcNAc
# Method in brief: as §1
# [33] = target: Neu5Ac(a2-6)Gal(b1-4)GlcNAc(b1-2)Man(a1-3)[GlcNAc(b1-2)Man(a1-6)]Man(b1-4)GlcNAc(b1-4)GlcNAc
# Method in brief: as §1
# [34] = target: Neu5Ac(a2-6)Gal(b1-4)GlcNAc(b1-2)Man(a1-3)[GlcNAc(b1-2)Man(b1-4)GlcNAc(b1-2)Man(a1-6)]Man(b1-4)GlcNAc(b1-4)GlcNAc
# Method in brief: as §1
# [35] = target: Neu5Ac(a2-6)Gal(b1-4)GlcNAc(b1-2)Man(a1-3)[Neu5Ac(a2-6)Gal(b1-4)GlcNAc(b1-2)Man(a1-6)]Man(b1-4)GlcNAc(b1-4)GlcNAc
# Method in brief: as §1
# [36] = target: Neu5Ac(a2-6)Gal(b1-4)GlcNAc(b1-2)Man(a1-6)[Gal(b1-4)GlcNAc(b1-2)Man(a1-3)]Man(b1-4)GlcNAc(b1-4)GlcNAc
# Method in brief: as §1
# [37] = target: Neu5Ac(a2-6)Gal(b1-4)GlcNAc(b1-2)Man(a1-6)[GlcNAc(b1-2)Man(a1-3)]Man(b1-4)GlcNAc(b1-4)GlcNAc
# Method in brief: as §1
# [38] = target: Neu5Ac(a2-6)Gal(b1-4)GlcNAc(b1-3)Gal(b1-4)GlcNAc
# Method in brief: as §1
# [39] = target: Neu5Ac(a2-6)Gal(b1-4)GlcNAc(b1-3)Gal(b1-4)[Fuc(a1-3)]GlcNAc(b1-3)Gal(b1-4)[Fuc(a1-3)]GlcNAc
# Method in brief: as §1
# [40] = target: Neu5Ac(a2-6)Gal(b1-4)GlcNAc6S
# Method in brief: as §1
# [41] = target: Neu5Ac(a2-6)GalNAc
# Method in brief: as §1
# [42] = target: Neu5Ac(a2-6)GalNAc(b1-4)GlcNAc
# Method in brief: as §1
# [43] = target: Neu5Ac(a2-8)Neu5Ac
# Method in brief: as §1
# [44] = target: Neu5Ac(a2-8)Neu5Ac(a2-3)Gal(b1-4)Glc
# Method in brief: as §1
# [45] = target: Neu5Ac(a2-8)Neu5Ac(a2-3)[GalNAc(b1-4)]Gal(b1-4)Glc
# Method in brief: as §1
# [46] = target: Neu5Ac(a2-8)Neu5Ac(a2-8)Neu5Ac
# Method in brief: as §1
# [47] = target: Neu5Ac(a2-8)Neu5Ac(a2-8)Neu5Ac(a2-3)Gal(b1-4)Glc
# Method in brief: as §1
# [48] = target: Neu5Ac(a2-8)Neu5Ac(a2-8)Neu5Ac(a2-3)[GalNAc(b1-4)]Gal(b1-4)Glc
# Method in brief: as §1
# [49] = target: Neu5Ac(a2-8)Neu5Ac(a2-8)Neu5Ac(a2-8)Neu5Ac(a2-3)[GalNAc(b1-4)]Gal(b1-4)Glc
# Method in brief: as §1
# [50] = target: Neu5Ac(b2-6)Gal(b1-4)GlcNAc
# Method in brief: as §1
# [51] = target: Neu5Ac(b2-6)GalNAc
# Method in brief: as §1
# [52] = target: Neu5Ac9Ac(a2-6)Gal(b1-4)GlcNAc
# Method in brief: as §1
# [53] = target: Neu5Gc(a2-3)Gal(b1-3)GlcNAc
# Method in brief: as §1
# [54] = target: Neu5Gc(a2-3)Gal(b1-3)[Fuc(a1-4)]GlcNAc
# Method in brief: as §1
# [55] = target: Neu5Gc(a2-3)Gal(b1-4)Glc
# Method in brief: as §1
# [56] = target: Neu5Gc(a2-3)Gal(b1-4)GlcNAc
# Method in brief: as §1
# [57] = target: Neu5Gc(a2-3)Gal(b1-4)[Fuc(a1-3)]GlcNAc
# Method in brief: as §1
# [58] = target: Neu5Gc(a2-6)Gal(b1-4)GlcNAc
# Method in brief: as §1
# [59] = target: Neu5Gc(a2-6)GalNAc
# Method in brief: as §1
# [60] = target: Neu5Gc(b2-6)Gal(b1-4)GlcNAc
# Method in brief: as §1
binder,measurement,setting,value
B1,glycan array binding signal (z-score),[1],0.152
same,glycan array binding signal (z-score),[2],-0.269
same,glycan array binding signal (z-score),[3],-0.22
same,glycan array binding signal (z-score),[4],-0.28
same,glycan array binding signal (z-score),[5],-0.36
same,glycan array binding signal (z-score),[6],-0.473
same,glycan array binding signal (z-score),[7],-0.394
same,glycan array binding signal (z-score),[8],-0.166
same,glycan array binding signal (z-score),[9],-0.298
same,glycan array binding signal (z-score),[10],-0.519
same,glycan array binding signal (z-score),[11],-0.465
same,glycan array binding signal (z-score),[12],-0.129
same,glycan array binding signal (z-score),[13],0.443
same,glycan array binding signal (z-score),[14],0.799
same,glycan array binding signal (z-score),[15],-0.263
same,glycan array binding signal (z-score),[16],1.16
same,glycan array binding signal (z-score),[17],0.101
same,glycan array binding signal (z-score),[18],-0.203
same,glycan array binding signal (z-score),[19],0.353
same,glycan array binding signal (z-score),[20],2.75
same,glycan array binding signal (z-score),[21],0.052
same,glycan array binding signal (z-score),[22],-0.293
same,glycan array binding signal (z-score),[23],-0.353
same,glycan array binding signal (z-score),[24],-0.375
same,glycan array binding signal (z-score),[25],0.435
same,glycan array binding signal (z-score),[26],-0.517
same,glycan array binding signal (z-score),[27],-0.511
same,glycan array binding signal (z-score),[28],-0.296
same,glycan array binding signal (z-score),[29],-0.276
same,glycan array binding signal (z-score),[30],-0.125
same,glycan array binding signal (z-score),[31],-0.317
same,glycan array binding signal (z-score),[32],-0.422
same,glycan array binding signal (z-score),[33],-0.235
same,glycan array binding signal (z-score),[34],0.214
same,glycan array binding signal (z-score),[35],0.131
same,glycan array binding signal (z-score),[36],-0.044
same,glycan array binding signal (z-score),[37],1.27
same,glycan array binding signal (z-score),[38],-0.606
same,glycan array binding signal (z-score),[39],-0.282
same,glycan array binding signal (z-score),[40],0.194
same,glycan array binding signal (z-score),[41],0.848
same,glycan array binding signal (z-score),[42],0.629
same,glycan array binding signal (z-score),[43],-0.388
same,glycan array binding signal (z-score),[44],-0.349
same,glycan array binding signal (z-score),[45],-0.544
same,glycan array binding signal (z-score),[46],-0.306
same,glycan array binding signal (z-score),[47],-0.061
same,glycan array binding signal (z-score),[48],-0.401
same,glycan array binding signal (z-score),[49],-0.351
same,glycan array binding signal (z-score),[50],0.305
same,glycan array binding signal (z-score),[51],1.25
same,glycan array binding signal (z-score),[52],-0.257
same,glycan array binding signal (z-score),[53],-0.024
same,glycan array binding signal (z-score),[54],-0.368
same,glycan array binding signal (z-score),[55],-0.317
same,glycan array binding signal (z-score),[56],-0.523
same,glycan array binding signal (z-score),[57],-0.166
same,glycan array binding signal (z-score),[58],-0.249
same,glycan array binding signal (z-score),[59],-0.333
same,glycan array binding signal (z-score),[60],0.088
